The whole screen tested about 310,000 compounds, of which about 14,000 (4.5%) showed an effect of 50% or more. Effects have a minus sign here. The list shows a part of the results.
Target: human ether-à-go-go-related gene (hERG) potassium channel (human, UniProt Q12809)
Assay: primary screen, population patch clamp on CHO cells stably expressing hERG
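Note: peak tail current of the secondary pulse compared with the same well before compound.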

Chain of human ether-à-go-go-related gene (hERG) potassium channel (Q12809 whole entry, looked up): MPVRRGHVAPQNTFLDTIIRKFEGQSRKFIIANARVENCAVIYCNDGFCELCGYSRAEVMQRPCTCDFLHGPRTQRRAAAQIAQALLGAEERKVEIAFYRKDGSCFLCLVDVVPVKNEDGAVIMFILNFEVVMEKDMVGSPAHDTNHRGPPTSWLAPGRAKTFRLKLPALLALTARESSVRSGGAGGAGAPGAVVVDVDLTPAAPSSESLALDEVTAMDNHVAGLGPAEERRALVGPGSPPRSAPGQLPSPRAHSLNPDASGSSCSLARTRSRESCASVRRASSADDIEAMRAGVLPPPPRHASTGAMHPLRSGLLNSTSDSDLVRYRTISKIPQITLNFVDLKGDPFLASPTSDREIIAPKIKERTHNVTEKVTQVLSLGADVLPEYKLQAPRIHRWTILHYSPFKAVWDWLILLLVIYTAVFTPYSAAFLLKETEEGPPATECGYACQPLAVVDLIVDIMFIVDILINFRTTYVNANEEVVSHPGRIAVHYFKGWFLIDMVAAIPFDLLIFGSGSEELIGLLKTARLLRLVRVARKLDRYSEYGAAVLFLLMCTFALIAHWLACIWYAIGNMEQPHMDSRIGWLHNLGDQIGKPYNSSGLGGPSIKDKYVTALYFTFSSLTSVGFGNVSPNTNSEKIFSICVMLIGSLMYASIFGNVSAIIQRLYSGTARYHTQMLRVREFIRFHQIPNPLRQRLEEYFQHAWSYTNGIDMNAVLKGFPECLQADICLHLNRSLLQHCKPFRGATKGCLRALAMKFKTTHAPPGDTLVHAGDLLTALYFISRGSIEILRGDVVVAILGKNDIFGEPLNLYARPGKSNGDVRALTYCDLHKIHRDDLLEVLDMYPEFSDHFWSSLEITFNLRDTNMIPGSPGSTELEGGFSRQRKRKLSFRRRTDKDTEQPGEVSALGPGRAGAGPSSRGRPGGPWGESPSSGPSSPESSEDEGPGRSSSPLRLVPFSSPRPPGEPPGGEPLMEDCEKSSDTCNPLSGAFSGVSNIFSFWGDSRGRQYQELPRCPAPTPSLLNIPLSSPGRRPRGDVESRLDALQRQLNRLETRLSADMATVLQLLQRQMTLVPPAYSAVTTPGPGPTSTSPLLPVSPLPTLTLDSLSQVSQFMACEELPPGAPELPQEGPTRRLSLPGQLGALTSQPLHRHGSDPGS

Structure (SMILES) | hERG current change (%, negative = inhibition) at 10uM
O=C(Oc1ccc(Br)cc1)c1n[nH]c(=O)c2ccccc12 | 22.4%
CCOC(=O)c1c(-c2ccc(OC)cc2)csc1/N=C/N(C)C | 2.51%
COCCCNC(=S)N1CCCN(c2nc3cc(C)c(C)cc3cc2C#N)CC1 | -10.2%
CCOc1ccc(N=Cc2c(O)cc(C)oc2=O)cc1 | 0.0703%
Cc1ccc(C(NC(=O)NN2CCN(C)CC2)C(Cl)Cl)cc1F (stereo not shown) | -2.9%
O=C(OCn1nnc2ccccc2c1=O)c1cn(-c2ccccc2)nc1-c1cccnc1 | -11.9%
Cc1cccc(C)c1Nc1c(-c2ccc(N3CCOCC3)cc2)nc2ncccn12 | -19%
CN(CC(=O)Nc1ccc(N2CCOCC2)cc1)Cc1cc(=O)n2ccsc2n1 | 7.88%
CN(CCOc1ccccc1)CC(=O)Nc1ccc(Cl)cc1[N+](=O)[O-].O=C(O)C(=O)O | -8.1%
O=C(NC(Cc1ccccc1)C(=O)O)/C(=C\c1ccco1)NC(=O)c1ccccc1 (stereo not shown) | 4.61%
O=C(CNCc1ccccn1)Nc1ccc([N+](=O)[O-])cc1C(=O)Nc1ccccc1F | -4.29%
CCCCOC(=O)c1[nH]c(C)c(C(=O)OC)c1C | 5.83%
COc1ccc(C(C(=O)NC2CCCC2)N(C(=O)CNC(=O)c2ccco2)c2cccnc2)cc1 (stereo not shown) | 14.7%
Cc1ccc(N(CC(=O)NCCc2ccc(F)cc2)S(=O)(=O)c2ccc(Cl)c([N+](=O)[O-])c2)c(C)c1 | 7.41%
COc1cc(OC)cc(-c2cc(N3C(=O)Nc4ccccc4N3O)n[nH]2)c1 | 13.5%
CC1(C)Cc2[nH]c(=O)c(C#N)cc2CS1 | -7.22%
CS(=O)(=O)N1CCN(c2cccc(Cl)n2)CC1 | 17%
COc1ccccc1C1=NNC(=NCc2ccccc2)SC1 | -8.96%
Cc1cc(OCC(=O)O/N=C(\N)c2ccccc2)ccc1Br | 20.6%
O=C(CSc1nc(C2CC2)nc2ccccc12)NCc1ccc2c(c1)OCO2 | 0.0232%
Cc1ccc(NC(=O)[C@@H](NC(=O)c2cccc(S(=O)(=O)N3CCOCC3)c2)C(C)C)cc1C | 5.87%
CN(C)/C=C(\C=O)c1ccc(Cl)cc1Cl | 13.3%

Structure (SMILES) | hERG current change (%, negative = inhibition) at 10uM
CCN1CC(CN(C)Cc2nc(COc3ccccc3)no2)CC1=O (stereo not shown) | 10.2%
CN(Cc1nc(-c2ccc(C(F)(F)F)cc2)no1)C1CCOCC1 | -4.86%
COCCn1c(SCc2ccc(C(=O)OC)o2)nc2cc(Cl)ccc2c1=O | -9.42%
CCN(C(=O)COC(=O)C1CCN(S(=O)(=O)c2c(Cl)cccc2Cl)CC1)C1CCCCC1 | -16.9%
COc1ccc(NC(=S)N(CCCN2CCCCC2)Cc2cccs2)cc1 | -61%
COc1ccc(CC(=O)N/N=C/c2ccc(Cl)s2)cc1OC | 9.31%
Cc1cc(NC(=O)CSc2nc(Cc3ccc(O)cc3)c(C)[nH]2)no1 | -0.933%
CCOC(=O)C1CCCN(C(=O)c2ccc(OCC)cc2)C1 (stereo not shown) | 9.13%
O=C(NCCc1ccccc1)c1ccc(S(=O)(=O)N2CCCC2)cc1 | -5.37%
COCCN(C(=O)Nc1ccc(OC)cc1OC)C1CCN(C(C)C)CC1 | 2.16%
Cc1nnc(SCC(=O)NC(=O)NCc2ccco2)n1Cc1ccccc1 | -6.26%
C=CCC1CCC/C(=N\NS(=O)(=O)c2ccc(C)cc2)C1 (stereo not shown) | 4.26%
O=C(NCCCc1ccccc1)N1CCOCC1 | 10.8%
Cl.O=C(O)c1ccccc1N/N=C\c1ccnc2ccccc12 | 18.1%
Cc1ccccc1N1CCN(CC(=O)Nc2nc(C)c(C(=O)N(C)C)s2)CC1 | 2.02%
COc1ccc(OC)c(S(=O)(=O)Nc2ccc(C(C)=O)cc2)c1 | 0.161%
CNC(=O)c1nnn(Cc2ccccc2)c1NC(=O)C(F)(F)F | 22.9%
COc1ccccc1/C=C/C(=O)NCC(=O)N/N=C/c1ccccc1[N+](=O)[O-] | -36.9%
CNc1ccc(S(=O)(=O)NCC(=O)OC(C)C(=O)N(C)Cc2ccccc2)cc1[N+](=O)[O-] (stereo not shown) | -1.57%
CC(=O)c1ccc(OCC(O)CN2CCN(CCN3C(=O)c4cccc5cccc(c45)C3=O)CC2)cc1.Cl (stereo not shown) | -34.1%
CC1(C)C([N+](=O)[O-])C(c2ccc(Cl)cc2)NC(c2ccc(Cl)cc2)C1[N+](=O)[O-] (stereo not shown) | 19.7%

— publication PMC4336329 (PLoS ONE, 2015)
